# Measured values from the supplement of paper PMC11417369.
# The other results are listed elsewhere or left out.
# Test system: PF3D7_0420300 AP2 domain 1 (GST-tagged)
# Experiment: gcPBM binding intensity (ln(normalized median fluorescence intensity)); higher = stronger DNA binding
# Method in brief: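 DNA-binding domains from P. falciparum, fused to GST and produced in E. coli, were put on an Agilent 4 × 180k double-stranded probe array for 1 h in 1× PBS holding 1% milk, 0.2 mg/ml BSA, 0.5% salmon testes DNA and 0.03% Triton X-100. Probes were primer-extended, 36 bp long and drawn from intergenic genomic regions, with negative controls included. After Alexa488 anti-GST antibody detection and a 488 nm scan, binding intensity was set as the highest Masliner-normalised natural-log median intensity across replicate spots of either probe orientation.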
row,Sequence,gcPBM binding intensity (ln)
1,TAATAATACCCAAGCACACACACACCCATATATATA [CACACA_site4831],10
2,AATATAAATAAAAACACACACAATGGTACATATATA [CACACA_site3671],10
3,TACTGTGATAGCACCACACACGCAAAAGTGGGTATA [CACACA_site4749],9.28
4,TTTAAATCGTTAAAAACACACAAAAAAAATCAATTA [CACACA_site2519],9.34
5,TCTATACCAGAAAAGGGTACATATTTTGGATTGAAC [XGTACX_site8402],9.11
6,ATTATGCACCAACACACACACACACTCCTAAAAAAT [CACACA_site8822],10.3
7,TACATACATATATTATGTACATATTTTATTTTTATT [XGTACX_site1642],9.38
8,TTTCTTTTAATAATTAAATATTTATTTATGATTATA [TGCATGCA_negctrl_site30],8.76
9,AAAAAAAATTCGTGTGTGCGCATATATAATATATAA,9.6
10,AAGCATACATCAAGCACACACACACCCACAGAGACA [CACACA_site4362],9.89
11,ATAAATATATATATCACACATATATAATTATATATA [CACACA_site4787],9.25
12,TATGTAGTTTTAAAGTGTACTTATATATATTAATTG [XGTACX_site378],9.3
13,ATAAATAAATAAATAAATAAATATACATATACATAT [CACACA_negctrl_site205],9.39
14,AAGAAATAAAAAGAATGTACACAATATGTATTATAA [XGTACX_site4733],9.35
15,TGGACAATTGTTTATTGTACTTAAATTTTATGTTCT [XGTACX_site8974],9.12
16,AGCATTTTAAGTTATACACACATTTTGAATCTATAT [CACACA_site7599],9.6
17,ATATACTATATTTTAACACACAAAAAAAAAAAATAT [CACACA_site1091],9.5
18,AAATTATATATATTACGTACATAGAACTTTACAGAA [XGTACX_site6646],9.34
19,ATGTTACACCGACACACACACATAAAAAAACAAAAA [CACACA_site5750],9.86
20,TATATTTATATCCACTTCGTTTAACGCACAGATATA [CACACA_negctrl_site954],9.23
21,ATTATAAAAATATATTGTACACAAAAATGTTTATAT [XGTACX_site5066],9.02
22,TGAGATATAAAAATATGTACTTATGTATAAATATTT [XGTACX_site7746],9.07
23,CCAAATTTATTTTGTAGTACTCCGTATAGATCAACA [XGTACX_site7945],9.03

row,Sequence,gcPBM binding intensity (ln)
1,AAGTTTTTTTTTAACACACACATAATAAAATAAATA [CACACA_site446],9.65
2,TATCCATATTTGTTCACACACACACCGATTTATATA [CACACA_site5888],10.1
3,CAAAAAACAACAGATCGTACAAAATATTATATATAT [XGTACX_site2285],9.58
4,TTGAAAAATGAGCACACACACAAATACATACATATT [CACACA_site3231],10.1
5,TTTTAACAAAAAAAAAGAAAAGAAAAGAAAATAATA [XGTACX_negctrl_site530],9.2
6,TTAACTCTGGAGAAAAGTACATAGTATCTGGTAACA [XGTACX_site4941],9.05
7,TAAATATGTGTATGTAGTACATAGTGTTTTTTTTTT [XGTACX_site3748],9.22
8,ATATTATGAATTGTCACACATATATTTAAAAATGTA [CACACA_site4852],9.16
9,TGCATATTACTTTTTCACATAAAAATGATCCGATTA [GTGCAC_negctrl_site526],8.95
10,AAAAAATGACTTAATATGAGCATATATTATGTTGTT [CACACA_negctrl_site1609],9.07
11,AAAATATAAAAATGAAGTACAAAAAAAAAAAAAAAA [XGTACX_site8132],9.09
12,GTTATACACATCAACACACACATACAACGTGGTGTA [CACACA_site6677],9.56
13,CATTAAAATTGAGAGATGCACTTTTTAAGACCTTGT,9.03
14,AAAAAAAATTAAATAAATAAATATACACATATATAT [GTGCAC_negctrl_site394],9.26
15,AAAACATTGTTTATGTGTACATAATTATATTTACAA [XGTACX_site6926],9.1
16,TTTTTTTTTTTTTTTTTTTTACCCCTTTTTCAAAAA [CACACA_negctrl_site1524],8.39
17,ATAATATATTTATAATGTACAAACCATTTGTATTAA [XGTACX_site4370],9.12
18,TCTAACATATAATATTCACACACATATATATATTAT [CACACA_site8236],9.69
19,TGGTTTCAATAATTAATAAAATATATTATTGTGAAA [CACACA_negctrl_site442],8.84
20,ATTATTATTATATTTTGTACATATGTAACAATATAT [XGTACX_site5780],9.23
21,GTGTTTGAAAATAAAGCATGCAAATATATTTGAAAT [TGCATGCA_site386],9.22
22,TTTTTTTTGTTCATTGTGCACATTGCTTGCATGGAA [GTGCAC_site9693],9.05
